Source: PMC8691596
Certain results were filed several times, with different values. They are shown here; other results are not. An entry can have further records. Results that share an entry seem to repeat one measurement; a mean can stand among them.

Molecular target: human FcγRI (CD64), histidine-tagged recombinant (human) (UniProt P12314)
Experiment: SPR; His-tagged Fc receptor captured by anti-histidine antibody immobilised on CM5; antibody injected at 100 μg/mL for 1 min; response about 5 s before end of injection, blank subtracted; 25°C, HBS-EP+; Biacore T200

Sequence of UniProt P12314 (P12314 16-292): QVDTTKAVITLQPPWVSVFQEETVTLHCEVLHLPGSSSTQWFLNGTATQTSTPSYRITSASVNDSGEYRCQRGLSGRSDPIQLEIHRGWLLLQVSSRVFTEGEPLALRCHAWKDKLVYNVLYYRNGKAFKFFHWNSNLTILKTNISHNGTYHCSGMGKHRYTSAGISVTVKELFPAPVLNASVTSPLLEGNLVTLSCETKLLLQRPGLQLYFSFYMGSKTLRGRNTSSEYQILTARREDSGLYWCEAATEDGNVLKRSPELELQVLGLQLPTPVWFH

## anti-CD20 IgG1 L234G/L235S/G236R (antibody)
  response: -0.1 RU, 2.7 RU, 3.1 RU [columns of one line]

## anti-CD20 IgG1 L234S/L235T/G236R (antibody)
  response: -0.5 RU, 0.3 RU, 1.9 RU [columns of one line]
